According to the supplement of paper PMC12217912:
The other results are listed elsewhere or left out. Sequences were assembled here from the parent chain. Inactive controls read about 0.05.

B1: TEV protease; numbered along this chain (parent)
chain: MGESLFKGPRDYNPISSSICHLTNESDGHTTSLYGIGFGPFIITNKHLFRRNNGTLVVQSLHGVFKVKDTTTLQQHLVDGRDMIIIRMPKDFPPFPQKLKFREPQREERICLVTTNFQTKSMSSMVSDTSCTFPSGDGIFWKHWIQTKDGQCGSPLVSTRDGFIVGIHSASNFTNTNNYFTSVPKNFMELLTNQEAQQWVSGWRLNADSVLWGGHKVFMVKPEEPFQPVKEATQL

Variants of: B1
Test: raw area under fraction-flipped curve 0-4 h after induction (AUC4h, not background-subtracted), DNA-recorder readout of cleavage of the substrate (dimensionless); higher = more cleavage of the substrate by the protease variant
Conditions: temperature: 34 °C; time window: 0-4 h after rhamnose induction
Procedure: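 In vivo DNA recorder in E. coli TOP10(DE3) ΔrhaA at 34 °C. Each TEVp single-site mutant (parent TEVp 0) is paired with a single-site variant of the 7-mer TEVs (canonical ENLYFQ|S). The substrate sits between flexible linkers in a Bxb1-sfGFP-TEVs-SsrA fusion, so cleavage stabilises Bxb1 and speeds flipping of a recombination array, read by NGS. The value is the raw area under the fraction-flipped curve over 0-4 h after rhamnose induction (AUC4h), with ≥20 reads per time point. It is not background-subtracted; inactive controls average about 0.047.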
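Further: Bxb1 expression induced with 0.2% (w/v) L-rhamnose at OD600 near 0.5, cultures sampled hourly, flipped fraction per protease–substrate barcode pair counted by paired-end Illumina sequencing.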

| Variant | area with substrate ENLYAQS | area with substrate ENLYDQS | area with substrate ENLYEQS | area with substrate ENLYGQS | area with substrate ENLYHQS | area with substrate ENLYIQS | area with substrate ENLYKQS | area with substrate ENLYMQS | area with substrate ENLYPQS | area with substrate ENLYQQS | area with substrate ENLYRQS | area with substrate ENLYVQS | area with substrate ENLYWQS | area with substrate ENLYCQS | area with substrate ENLYYQS | area with substrate ENLYNQS | area with substrate ENLYSQS | area with substrate ENLYLQS | area with substrate ENLYTQS |
| --- | --- | --- | --- | --- | --- | --- | --- | --- | --- | --- | --- | --- | --- | --- | --- | --- | --- | --- | --- |
| R106F | 0.0722 | 0.0628 | 0.0802 | 0.0599 | 0.0661 | 0.141 | 0.0529 | 0.0684 | 0.0769 | 0.0616 | 0.0116 | 0.117 | 0.091 | – | – | – | – | – | – |
| E107A | 0.0753 | 0.0458 | 0.0643 | – | 0.0775 | 0.116 | 0.0646 | 0.0671 | 0.077 | 0.0511 | 0.0712 | 0.122 | 0.098 | 0.0583 | 0.0978 | – | – | – | – |
| E108T | 0.0462 | 0.0461 | 0.0564 | 0.0497 | 0.0454 | – | – | 0.0558 | 0.06 | 0.0445 | 0.0531 | 0.0909 | 0.087 | 0.0476 | – | 0.042 | 0.0811 | – | – |
| V113P | 0.07 | 0.0612 | 0.0536 | – | 0.0669 | 0.0777 | 0.0591 | 0.0649 | 0.0519 | 0.0499 | 0.0584 | 0.0834 | 0.0712 | 0.0829 | 0.0451 | 0.0577 | 0.0501 | 0.0586 | 0.0319 |
| T115N | 0.122 | 0.0562 | – | – | 0.0706 | – | 0.0619 | 0.0734 | – | 0.0579 | 0.0599 | – | 0.0879 | – | – | – | – | – | 0.0814 |
| N116D | 0.0747 | 0.0643 | 0.0642 | 0.0717 | 0.0599 | 0.122 | 0.0602 | – | 0.0716 | 0.069 | – | 0.0973 | 0.0718 | – | 0.0779 | 0.0808 | – | – | 0.0816 |
| F117H | 0.0866 | 0.0633 | 0.055 | 0.0712 | 0.0713 | 0.137 | 0.042 | 0.0738 | 0.0598 | 0.0763 | 0.0628 | 0.121 | 0.0782 | – | – | 0.0662 | 0.0508 | – | 0.0782 |
| M122E | 0.0713 | – | 0.0693 | 0.0645 | 0.068 | – | 0.077 | 0.0682 | – | 0.0565 | 0.0229 | 0.122 | 0.0964 | – | – | 0.079 | 0.0736 | – | – |
| M122Q | 0.0646 | 0.0698 | 0.0775 | 0.0708 | 0.0648 | 0.123 | 0.0572 | 0.0867 | 0.0806 | – | 0.0381 | 0.101 | 0.0785 | 0.103 | 0.0883 | 0.0771 | 0.0666 | 0.0769 | 0.0701 |
| S123A | 0.0819 | – | 0.0584 | 0.0565 | 0.0695 | – | 0.0654 | 0.0758 | – | 0.0652 | 0.0538 | – | 0.0871 | – | 0.0568 | 0.0824 | – | – | 0.112 |
| M125N | 0.0707 | 0.0565 | 0.0627 | 0.0675 | 0.0658 | 0.159 | 0.0519 | 0.104 | 0.0778 | 0.0422 | 0.0582 | – | 0.0859 | 0.0757 | 0.0637 | 0.0692 | 0.0775 | 0.0631 | 0.0947 |
| M125T | 0.0779 | 0.063 | 0.0701 | 0.0657 | 0.0567 | 0.132 | 0.0616 | 0.0909 | 0.074 | 0.0653 | 0.0629 | 0.0851 | 0.0661 | 0.0981 | – | 0.0668 | 0.0523 | 0.0841 | – |
| V126N | 0.0798 | 0.0697 | 0.0672 | 0.0528 | 0.0749 | 0.105 | 0.0567 | 0.0934 | – | 0.0651 | 0.0473 | 0.0583 | 0.0693 | 0.127 | 0.0657 | – | 0.0876 | 0.0931 | 0.079 |
| S127D | 0.0644 | – | – | 0.0555 | 0.0705 | 0.138 | 0.054 | 0.0811 | – | 0.0829 | 0.0736 | 0.0835 | 0.0748 | – | 0.0562 | – | 0.0824 | – | 0.0794 |
| S127P | 0.0366 | 0.0627 | 0.0707 | 0.064 | 0.0717 | 0.118 | 0.0686 | – | 0.0817 | 0.0812 | 0.0444 | – | 0.13 | 0.117 | – | 0.0863 | 0.0681 | 0.0855 | – |
| T129W | 0.066 | 0.0575 | 0.0753 | 0.0646 | 0.0646 | 0.117 | 0.045 | 0.0971 | 0.0752 | 0.0454 | 0.0523 | 0.117 | 0.0887 | 0.082 | – | 0.0658 | 0.0932 | – | 0.0835 |
| T132V | 0.0792 | 0.0493 | 0.0712 | – | 0.0578 | 0.106 | 0.0693 | 0.0712 | 0.0755 | 0.0351 | 0.065 | 0.0978 | 0.0556 | 0.0817 | 0.054 | 0.0619 | 0.0707 | 0.0742 | 0.0674 |
| F133N | 0.0833 | 0.059 | – | 0.0647 | 0.0872 | 0.116 | – | – | 0.0788 | – | 0.0561 | 0.0871 | – | – | – | 0.0522 | – | – | 0.0771 |
| S135A | 0.0606 | 0.0601 | 0.066 | 0.102 | 0.0642 | 0.0883 | 0.0715 | 0.0539 | 0.0615 | – | 0.0566 | 0.0609 | 0.0606 | 0.0746 | – | 0.0676 | – | 0.0642 | – |
| D137N | 0.0868 | 0.0645 | 0.0771 | 0.045 | 0.0703 | 0.118 | 0.0478 | 0.0844 | 0.0752 | 0.0625 | 0.0569 | 0.124 | 0.0728 | – | 0.0584 | 0.0636 | – | 0.0768 | 0.0674 |
| D137R | 0.0617 | 0.0557 | 0.0629 | 0.0669 | 0.0621 | 0.114 | 0.0461 | 0.0706 | 0.0629 | 0.101 | 0.0837 | – | – | 0.0754 | 0.0544 | – | 0.0725 | 0.0618 | 0.0666 |
| I139G | 0.0888 | – | 0.0665 | 0.082 | 0.0493 | 0.0535 | 0.0662 | 0.0696 | 0.059 | – | 0.0548 | 0.092 | 0.0749 | – | 0.0613 | 0.0691 | – | 0.0766 | 0.0536 |
| I139S | 0.0631 | 0.0505 | 0.0586 | 0.0451 | 0.071 | 0.0813 | 0.0557 | 0.08 | 0.0657 | 0.064 | 0.0684 | 0.135 | 0.0887 | – | 0.0537 | 0.0674 | 0.0741 | 0.0659 | 0.0459 |
